Results reported in the supplement of paper PMC3334620.
Over roughly 33,000 sequences, “E-score (-0.5 to 0.5)” has its median near -0.016; the highest 2% begin near 0.31. The list shows a part of the results.

target: Cst6 (UniProt P40535); test: PBM E-score (8-mer binding enrichment) (E-score (-0.5 to 0.5)); higher = stronger / more preferred TF binding; most listed sequences are background and not binding sites; conditions: protein concentration: 200 nM; construct: GST-DNA-binding domain
How it was run: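 PURExpress in vitro transcription/translation supplied GST-tagged yeast transcription factors, either full-length or DNA-binding domain. Applied at about 100-200 nM to universal all-10-mer Agilent arrays double-stranded by primer extension, the bound protein was detected with fluorescent anti-GST. E-scores, modified Wilcoxon-Mann-Whitney statistics, were given by the Universal PBM Analysis Suite to ungapped eight-base words pooled with their reverse complements after masliner normalisation.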

| Sequence | PBM E-score |
| --- | --- |
| AAAGGCTG | -0.166 |
| CGCACTTA | 0.1 |
| TCGGTACA | 0.00999 |
| ACGTCAGG | 0.413 |
| AAAAGCCA | 0.182 |
| CCCGCAGG | -0.293 |
| TAGTACAA | -0.00017 |
| CCCGTGAG | -0.0936 |
| CTTTATTC | 0.0295 |
| CCCTGGCC | -0.249 |
| GCCACCGC | -0.126 |
| ATCGGTTA | 0.0811 |
| GAAGAAAA | 0.0816 |
| ACCCGTGC | -0.0192 |
| CAAGATTG | 0.0515 |
| CCTGCAGG | -0.133 |
| CATAGTCA | -0.0726 |
| AGAAGAGG | -0.0166 |
| ATAACTAC | 0.193 |
| CACCCCTC | -0.0461 |
| CGAGTCTC | -0.416 |
| CGACCTAA | 0.11 |
| GTTTATAA | 0.208 |
| GCTACGTA | 0.213 |
| ACTTGCAT | 0.134 |

| Sequence | PBM E-score |
| --- | --- |
| ATTGCAGC | -0.0128 |
| ACAGCGGG | -0.0301 |
| CCCATACA | -0.0517 |
| ACCTAAAC | 0.143 |
| ATGCCTGG | -0.25 |
| AGAAACCA | 0.0936 |
| GGGGAAAA | -0.101 |
| ATCCTAGC | -0.00153 |
| GTTCTACA | -0.0742 |
| CGGCTGCA | -0.154 |
| CATAGGAC | -0.146 |
| CAGAACGA | 0.0019 |
| AGATCGCC | 0.00791 |
| GAGCCTAA | -0.0425 |
| ATAATTCA | 0.253 |
| GAAGGCGC | -0.0358 |
| CGTTAACG | -0.103 |
| CAAGAACC | 0.187 |
| TGCCGTAA | 0.238 |
| TCTGACAA | 0.0678 |
| CCGTTCCA | 0.0312 |
| CGCAACTA | 0.0678 |
| AGCTATTA | 0.0826 |
| CACTATGG | -0.237 |
| CTTTACGC | 0.196 |

| Sequence | PBM E-score |
| --- | --- |
| CAATCCAG | 0.00496 |
| AGCGTCAT | 0.423 |
| CAAAGCGG | 0.0493 |
| AGAGTGTG | -0.129 |
| ACAGTTAG | -0.0051 |
| ACACATAG | 0.0732 |
| GACTCGTA | -0.126 |
| AATTTAGC | 0.228 |
| CACTACAA | 0.281 |
| ACGCGACG | 0.0129 |
| AAAGTTCT | -0.0864 |
| ACGGCGAT | 0.3 |
| ACATAAGT | 0.139 |
| GATTAAGC | -0.0145 |
| AAACTTCA | 0.186 |
| CTCCCCGA | -0.212 |
| CAAATCTG | 0.0139 |
| ATCGAGAT | 0.00125 |
| GCACTCCC | -0.123 |
| CGCCTTGA | -0.0316 |
| TCGGTCAA | -0.0181 |
| CGTCGCTA | 0.145 |
| AAAGACCG | -0.159 |
| GAAACTGA | 0.0115 |
| CCGACCTA | 0.0414 |

| Sequence | PBM E-score |
| --- | --- |
| ATGAGTAA | 0.0389 |
| AGAAAGTG | -0.123 |
| ATTGCATC | 0.232 |
| CTTTTCCC | 0.0307 |
| AAAGTAAA | 0.138 |
| CGGTGAAA | 0.0801 |
| AAGAAGAT | 0.0293 |
| GGGGCACC | -0.117 |
| ATACAATG | 0.169 |
| AATGGGAA | -0.133 |
| AACATGGC | 0.0119 |
| GAAAAAGC | 0.097 |
| ACGAAAAG | 0.106 |
| CAACTGAC | 0.0886 |
| GCTCCACA | -0.169 |
| GCAATAGA | 0.0115 |
| AACACGTT | 0.0953 |
| CTCCTTTA | -0.251 |
| ATGCTATA | -0.0582 |
| AAGAAATA | 0.226 |
| ATCACAAC | 0.218 |
| TCTGCAAA | 0.0063 |
| AGCGCCGA | 0.00204 |
| AGAGCCTA | -0.00715 |
| GTACATAC | 0.0163 |

| Sequence | PBM E-score |
| --- | --- |
| ATCAGAAA | 0.11 |
| AACGCCCC | -0.0981 |
| ATTCTCAG | 0.0691 |
| AATAGGGC | -0.1 |
| ACTTTCAT | 0.0339 |
| CAGGTGGA | -0.219 |
| TGTAACAA | 0.146 |
| CGTCTGAC | 0.166 |
| CTAGTGAG | 0.118 |
| CTTAACTA | 0.174 |
| ATCTTAAG | 0.0791 |
| GAGCCCCC | -0.261 |
| CCTTGCTA | 0.0372 |
| CAAGCGGA | -0.277 |
| ACGGCTCT | 0.174 |
| ATCCCCGA | -0.251 |
| CAATAAGA | 0.181 |
| ATACTTCA | 0.0785 |
| ATCTTAAA | 0.0934 |
| ATTTGCTG | 0.134 |
| TCGCCAAA | -0.103 |
| CCTCATTA | 0.174 |
| AATATCAC | 0.223 |
| CAGCGACC | -0.133 |
| AAGTCAAC | 0.03 |

| Sequence | PBM E-score |
| --- | --- |
| AGTTCTCG | 0.064 |
| AAAGGCAT | 0.132 |
| AGCTGAGC | -0.177 |
| CTGCGATC | -0.131 |
| GGAGGCGA | -0.154 |
| AATCCTTG | -0.00761 |
| CGGTGATC | -0.0129 |
| TGAACGCA | 0.149 |
| AATCTTCG | 0.107 |
| AGCCGACA | -0.162 |
| CTATCTCC | -0.127 |
| AGCGACAC | -0.0539 |
| AACTGTCG | -0.021 |
| AATCCTCC | -0.247 |
| ACGGCTGA | -0.0107 |
| CCTTCTTC | -0.206 |
| AATCCCAC | -0.204 |
| GCTCCAGA | -0.254 |
| CCCCAGCC | -0.331 |
| CGTCGCCC | -0.0868 |
| ATGTGGGC | -0.068 |
| CATTACGC | 0.219 |
| CGATAGGA | -0.174 |
| ACGGACGG | -0.0663 |
| CACAGCTA | -0.217 |

| Sequence | PBM E-score |
| --- | --- |
| AAGCGATG | -0.134 |
| GGAGATTA | 0.13 |
| TGGGCCAA | -0.213 |
| GAAAACAA | 0.18 |
| CAGGTGGG | -0.214 |
| CAAGATAC | 0.0316 |
| ATAAGCAT | -0.023 |
| ATGTATAA | 0.11 |
| ATGGAAGA | -0.0561 |
| GTGGGTTA | -0.0365 |
| CATAATAC | 0.224 |
| CAGATATG | 9e-05 |
| ATTCTAGC | -0.114 |
| TCAAAGAA | 0.0267 |
| GCCATGCC | -0.0464 |
| GCATTGGA | -0.00245 |
| GAAGGGTA | -0.0857 |
| ATACTAAT | 0.0826 |
| AAAGTTGA | 0.0474 |
| CCTCTACA | -0.208 |
| ATGTTTGG | 0.152 |
| AAGCGCCG | 0.305 |
